Data from patent EP4674868A1 (Jiangsu Hengrui Pharmaceuticals Co., Ltd., dated 2026).

What was measured:
[1] = biological target: T1, human CD40 on the surface of HEK293 cells (HEK293-HuCD40) (human, UniProt P25942 21-277); test: FACS, HEK293-HuCD40 cells
T1 construct: whole, on cells; Also used as the target of the CD40/NF-κB reporter assays in HEK-Blue CD40L cells; also called cell strain highly expressing human CD40; CD40 of HEK-Blue CD40L reporter cells

[2] = biological target: T2, human 4-1BB on the surface of HEK293 cells (HEK293-Hu4-1BB) (human, UniProt Q07011 24-255); test: FACS, HEK293-Hu4-1BB cells
T2 construct: whole, on cells; also called CD137; cell strain highly expressing human 4-1BB

[3] = biological target: T2, human 4-1BB on the surface of HEK293 …; test: cell-based or functional assay
[4] = biological target: T1, human CD40 on the surface of HEK293 …; test: FACS, HEK293-HuCD40 cells; remark: listed apart in the source
[5] = biological target: T3, human FAP on the surface of CHO-K1 cells (CHO-K1-HuFAP) (human, UniProt Q12884 1-760); test: FACS, CHO-K1-HuFAP cells
T3 construct: whole, on cells; also called CHO cell line overexpressing human FAP; FAP on the surface of CHO-K1-HuFAP cells

[6] = biological target: T2, human 4-1BB on the surface of HEK293 …; test: FACS, HEK293-Hu4-1BB cells; remark: listed apart in the source
[7] = biological target: T3, human FAP on the surface of CHO-K1 …; test: FACS, CHO-K1-HuFAP cells; remark: listed apart in the source
[8] = biological target: T2, human 4-1BB on the surface of HEK293 …; test: cell-based or functional assay; remark: listed apart in the source
[9] = biological target: T1, human CD40 on the surface of HEK293 …; test: cell-based or functional assay
[10] = biological target: T1, human CD40 on the surface of HEK293 …; test: cell-based or functional assay; remark: listed apart in the source
[11] = biological target: T2, human 4-1BB on the surface of HEK293 …; test: FACS, HEK293-Hu4-1BB cells; remark: listed apart in the source
[12] = biological target: T1, human CD40 on the surface of HEK293 …; test: FACS, HEK293-HuCD40 cells; remark: listed apart in the source
[13] = biological target: T3, human FAP on the surface of CHO-K1 …; test: FACS, CHO-K1-HuFAP cells; remark: listed apart in the source
[14] = biological target: T2, human 4-1BB on the surface of HEK293 …; test: cell-based or functional assay; remark: listed apart in the source
[15] = biological target: T1, human CD40 on the surface of HEK293 …; test: cell-based or functional assay; remark: listed apart in the source

T2 sequence (Q07011 24-255): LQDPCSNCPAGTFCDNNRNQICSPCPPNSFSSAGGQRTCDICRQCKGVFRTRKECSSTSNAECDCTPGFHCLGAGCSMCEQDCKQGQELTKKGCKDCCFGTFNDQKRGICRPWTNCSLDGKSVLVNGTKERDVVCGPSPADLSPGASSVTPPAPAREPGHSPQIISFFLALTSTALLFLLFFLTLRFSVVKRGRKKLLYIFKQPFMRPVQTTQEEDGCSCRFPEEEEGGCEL
T1 sequence (P25942 21-277): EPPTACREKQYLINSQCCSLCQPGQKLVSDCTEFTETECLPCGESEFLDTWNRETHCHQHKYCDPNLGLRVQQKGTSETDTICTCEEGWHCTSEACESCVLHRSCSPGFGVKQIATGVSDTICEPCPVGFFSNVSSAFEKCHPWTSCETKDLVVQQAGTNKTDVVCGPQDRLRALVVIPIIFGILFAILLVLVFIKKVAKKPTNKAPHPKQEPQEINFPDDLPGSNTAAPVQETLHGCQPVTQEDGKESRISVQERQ

B1: B977704 (anti-FAP/4-1BB/CD40 trispecific antibody) (other)
heavy: QVQLQQSGVEVKKPGASVTVSCRASGYSFADHFIHWVRQAPGQGFQWMGWINPNRGVTHHAQDFQGRVAMTRDMSTDTVYMELTSLRSDDTAVYYCARDASLTARPYYFYGFDVWGQGTLVTVSS[human IgG1 constant region with changes not given here]GGGGSGGGGSQVQLVESGGGLVQPGGSLRLSCSASGFTFSSYAMSWVRQAPGKGLEWVSDINSGGESTFYEDSVKGRFTISRDNAKNTLYLQMNSLRAEDTAVYYCAKHPLTYTIATMNDYDYWGQGTLVTVSS
light: DIQMTQSPSSVSASVGDRVTITCRASQGISSWLAWYQQKPGKAPKLLIYAASSLQSGVPSRFSGSGSGTDFTLTISSLQPEDFATYYCQQANSFPPAFGQGTKVEIKRTVAAPSVFIFPPSDEQLKSGTASVVCLLNNFYPREAKVQWKVDNALQSGNSQESVTEQDSKDSTYSLSSTLTLSKADYEKHKVYACEVTHQGLSSPVTKSFNRGECGGGGSGGGGSEVQLVESGGGLVQPGGSLRLSCAASGFTFSRYGMKWVRQAPGKGLEWVSTINSHGDTTYYADSVKGRFTISRDNAKNSLYLQMNSLRAEDTAVYYCLRIDYSDYSSRGQGTLVTVSS
EC50 [1]: 4.24 nM
Maximum fluorescence value [1]: 63800
EC50 [2]: 0.332 nM
Maximum fluorescence value [2]: 8520
4-1BB/NF-κB luciferase reporter, CD40-crosslinked, EC50 [3]: 0.054 nM
4-1BB/NF-κB luciferase reporter, CD40-crosslinked, Fold change in Emax [3]: 8.41 fold
4-1BB/NF-κB luciferase reporter, FAP-crosslinked, EC50 [3]: 0.142 nM
4-1BB/NF-κB luciferase reporter, FAP-crosslinked, Fold change in Emax [3]: 10.9 fold
4-1BB/NF-κB luciferase reporter, uncrosslinked, Fold change in Emax [3]: 1.54 fold
EC50 [4]: 6.54 nM
Maximum fluorescence value [4]: 75600
EC50 [5]: 2.24 nM
Maximum fluorescence value [5]: 127000
EC50 [6]: 0.227 nM
Maximum fluorescence value [6]: 10600
EC50 [7]: 0.92 nM
Maximum fluorescence value [7]: 67000
4-1BB/NF-κB luciferase reporter, CD40-crosslinked, EC50 [8]: 0.033 nM
4-1BB/NF-κB luciferase reporter, CD40-crosslinked, Fold change in Emax [8]: 5.5 fold
4-1BB/NF-κB luciferase reporter, FAP-crosslinked, EC50 [8]: 0.146 nM
4-1BB/NF-κB luciferase reporter, FAP-crosslinked, Fold change in Emax [8]: 7.98 fold
4-1BB/NF-κB luciferase reporter, uncrosslinked, Fold change in Emax [8]: 1.01 fold
CD40/NF-κB reporter (HEK-Blue CD40L), 4-1BB-crosslinked, EC50 [9]: 0.071 nM
CD40/NF-κB reporter (HEK-Blue CD40L), 4-1BB-crosslinked, Fold change in Emax [9]: 10.7 fold
CD40/NF-κB reporter (HEK-Blue CD40L), FAP-crosslinked, EC50 [9]: 0.017 nM
CD40/NF-κB reporter (HEK-Blue CD40L), FAP-crosslinked, Fold change in Emax [9]: 10.9 fold
CD40/NF-κB reporter (HEK-Blue CD40L), uncrosslinked, Fold change in Emax [9]: 4.79 fold
CD40/NF-κB reporter (HEK-Blue CD40L), 4-1BB-crosslinked, EC50 [10]: 0.253 nM
CD40/NF-κB reporter (HEK-Blue CD40L), 4-1BB-crosslinked, Fold change in Emax [10]: 5.92 fold
CD40/NF-κB reporter (HEK-Blue CD40L), FAP-crosslinked, EC50 [10]: 0.137 nM
CD40/NF-κB reporter (HEK-Blue CD40L), FAP-crosslinked, Fold change in Emax [10]: 6.75 fold
CD40/NF-κB reporter (HEK-Blue CD40L), uncrosslinked, Fold change in Emax [10]: 2.92 fold

B2: B21546901 (anti-FAP/4-1BB/CD40 trispecific antibody) (other)
heavy: QVQLQQSGVEVKKPGASVTVSCRASGYSFADHFIHWVRQAPGQGFQWMGWINPNRGVTHHAQDFQGRVAMTRDMSTDTVYMELTSLRSDDTAVYYCARDASLTARPYYFYGFDVWGQGTLVTVSS[human IgG1 constant region with changes not given here]GGGGSGGGGSQVQLVESGGGLVQPGGSLRLSCSASGFTFSSYAMSWVRQAPGKGLEWVSDINSGGQSTFYADSVKGRFTISRDNAKNTLYLQMNSLRAEDTAVYYCAKHPLTYTIATMNDYDYWGQGTQVTVSSGGGGSGGGGSEVQLVESGGGLVQPGGSLRLSCAASGFTFSRYGMKWVRQAPGKGLEWVSTINSHGDTTYYADSVKGRFTISRDNAKNSLYLQMNSLRAEDTAVYYCLRIDYSDYSSRGQGTQVTVSAA
light: DIQMTQSPSSVSASVGDRVTITCRASQGISSWLAWYQQKPGKAPKLLIYAASSLQSGVPSRFSGSGSGTDFTLTISSLQPEDFATYYCQQANSFPPAFGQGTKVEIKRTVAAPSVFIFPPSDEQLKSGTASVVCLLNNFYPREAKVQWKVDNALQSGNSQESVTEQDSKDSTYSLSSTLTLSKADYEKHKVYACEVTHQGLSSPVTKSFNRGEC
EC50 [11]: 0.5 nM
Maximum fluorescence value [11]: 10800
EC50 [12]: 4.17 nM
Maximum fluorescence value [12]: 66500
EC50 [13]: 1.71 nM
Maximum fluorescence value [13]: 68700
4-1BB/NF-κB luciferase reporter, CD40-crosslinked, EC50 [14]: 0.02 nM
4-1BB/NF-κB luciferase reporter, CD40-crosslinked, Fold change in Emax [14]: 4.61 fold
4-1BB/NF-κB luciferase reporter, FAP-crosslinked, EC50 [14]: 0.07 nM
4-1BB/NF-κB luciferase reporter, FAP-crosslinked, Fold change in Emax [14]: 15 fold
4-1BB/NF-κB luciferase reporter, uncrosslinked, Fold change in Emax [14]: 1.34 fold
CD40/NF-κB reporter (HEK-Blue CD40L), 4-1BB-crosslinked, EC50 [15]: 3.97 nM
CD40/NF-κB reporter (HEK-Blue CD40L), 4-1BB-crosslinked, Fold change in Emax [15]: 7.87 fold
CD40/NF-κB reporter (HEK-Blue CD40L), FAP-crosslinked, EC50 [15]: 0.66 nM
CD40/NF-κB reporter (HEK-Blue CD40L), FAP-crosslinked, Fold change in Emax [15]: 11.8 fold
CD40/NF-κB reporter (HEK-Blue CD40L), uncrosslinked, Fold change in Emax [15]: 3.41 fold

B3: B21326102 (anti-FAP/4-1BB/CD40 trispecific antibody) (other)
heavy: QVQLQQSGVEVKKPGASVTVSCRASGYSFADHFIHWVRQAPGQGFQWMGWINPNRGVTHHAQDFQGRVAMTRDMSTDTVYMELTSLRSDDTAVYYCARDASLTARPYYFYGFDVWGQGTLVTVSS[human IgG1 constant region with changes not given here]GGGGSGGGGSQVQLVESGGGLVQPGGSLRLSCSASGFTFSSYAMSWVRQAPGKGLEWVSDINSGGESTFYEDSVKGRFTISRDNAKNTLYLQMNSLRAEDTAVYYCAKHPLTYTIATMNDYDYWGQGTLVTVSAA
light: DIQMTQSPSSVSASVGDRVTITCRASQGISSWLAWYQQKPGKAPKLLIYAASSLQSGVPSRFSGSGSGTDFTLTISSLQPEDFATYYCQQANSFPPAFGQGTKVEIKRTVAAPSVFIFPPSDEQLKSGTASVVCLLNNFYPREAKVQWKVDNALQSGNSQESVTEQDSKDSTYSLSSTLTLSKADYEKHKVYACEVTHQGLSSPVTKSFNRGECGGGGSGGGGSEVQLVESGGGLVQPGGSLRLSCAASGFTFSRYGMKWVRQAPGKGLEWVSTINSHGDTTYYADSVKGRFTISRDNAKNSLYLQMNSLRAEDTAVYYCLRIDYSDYSSRGQGTLVTVSAA
EC50 [1]: 12.1 nM
Maximum fluorescence value [1]: 64700
EC50 [11]: 0.25 nM
Maximum fluorescence value [11]: 11300
EC50 [12]: 3.98 nM
Maximum fluorescence value [12]: 69400
EC50 [6]: 0.548 nM
Maximum fluorescence value [6]: 10600
EC50 [7]: 2.05 nM
Maximum fluorescence value [7]: 68700
EC50 [13]: 1.03 nM
Maximum fluorescence value [13]: 70600
4-1BB/NF-κB luciferase reporter, CD40-crosslinked, EC50 [8]: 0.09 nM
4-1BB/NF-κB luciferase reporter, CD40-crosslinked, Fold change in Emax [8]: 4.97 fold
4-1BB/NF-κB luciferase reporter, FAP-crosslinked, EC50 [8]: 0.266 nM
4-1BB/NF-κB luciferase reporter, FAP-crosslinked, Fold change in Emax [8]: 7.43 fold
4-1BB/NF-κB luciferase reporter, uncrosslinked, Fold change in Emax [8]: 1.06 fold
4-1BB/NF-κB luciferase reporter, CD40-crosslinked, EC50 [14]: 0.02 nM
4-1BB/NF-κB luciferase reporter, CD40-crosslinked, Fold change in Emax [14]: 5.04 fold
4-1BB/NF-κB luciferase reporter, FAP-crosslinked, EC50 [14]: 0.04 nM
4-1BB/NF-κB luciferase reporter, FAP-crosslinked, Fold change in Emax [14]: 14.9 fold
4-1BB/NF-κB luciferase reporter, uncrosslinked, Fold change in Emax [14]: 1.33 fold
CD40/NF-κB reporter (HEK-Blue CD40L), 4-1BB-crosslinked, EC50 [15]: 0.5 nM
CD40/NF-κB reporter (HEK-Blue CD40L), 4-1BB-crosslinked, Fold change in Emax [15]: 11.2 fold
CD40/NF-κB reporter (HEK-Blue CD40L), FAP-crosslinked, EC50 [15]: 0.25 nM
CD40/NF-κB reporter (HEK-Blue CD40L), FAP-crosslinked, Fold change in Emax [15]: 11.7 fold
CD40/NF-κB reporter (HEK-Blue CD40L), uncrosslinked, Fold change in Emax [15]: 4.06 fold
CD40/NF-κB reporter (HEK-Blue CD40L), 4-1BB-crosslinked, EC50 [10]: 0.499 nM
CD40/NF-κB reporter (HEK-Blue CD40L), 4-1BB-crosslinked, Fold change in Emax [10]: 6.38 fold
CD40/NF-κB reporter (HEK-Blue CD40L), FAP-crosslinked, EC50 [10]: 0.301 nM
CD40/NF-κB reporter (HEK-Blue CD40L), FAP-crosslinked, Fold change in Emax [10]: 6.89 fold
CD40/NF-κB reporter (HEK-Blue CD40L), uncrosslinked, Fold change in Emax [10]: 2.05 fold

Read-outs that look alike come from different tables or passages of the source.
